{
  "source": "PubChem BioAssay AID463173",
  "about": "(ICCB-Longwood Screening Facility, Harvard Medical School, 2010)",
  "note": "Out of some 52,000 compounds screened, about 4,300 (8.3%) were called active. Rule as the data show it: active = survival mostly below about 52% (no sharp cut-off); inactive = mostly above about 56%. This is one part of the list.",
  "data": [
    {"tested_on": "DeltatarO mutant", "experiment": "S. aureus survival, RN4220 and DeltatarO strains – OD600, teichoic acid synthesis inhibitors, primary screen (AID 463173)", "conditions": "S. aureus RN4220 wild type/DeltatarO growth, OD600, 18 h, hits give low values, screened at 18.75 µg/mL (by protocol)", "values": [
      {"smiles": "CC(C)c1ccc(NC(=O)CSc2nc(=O)n(Cc3cccnc3)c3c2CCC3)cc1", "survival": "inactive: 129%"},
      {"smiles": "CCOC(=O)c1[nH]c2ccccc2c1NC(=O)c1cc(OCC)c(OCC)c(OCC)c1", "survival": "inactive: 97%"},
      {"smiles": "Cc1cc(=O)n2nc(N3CCC(C(=O)NCc4ccc(Cl)cc4)CC3)sc2n1", "survival": "inactive: 99%"},
      {"smiles": "Cc1ccc2onc(CC(=O)N3CCN(c4cccc(C)c4C)CC3)c2c1", "survival": "active: 39%"},
      {"smiles": "CCOc1ccc(NC(=O)Cn2c(CCC(=O)O)ccc2-c2ccc(C)cc2)cc1", "survival": "inactive: 65%"},
      {"smiles": "CCc1ccc2[nH]c(=O)c(CN(Cc3ccccc3)Cc3nnnn3C3CCCC3)cc2c1", "survival": "inactive: 85%"},
      {"smiles": "Clc1ccc(Nc2nc(-c3ccccc3)c3cc(Cl)ccc3n2)cc1", "survival": "inactive: 54%"},
      {"smiles": "COc1ccc(-c2noc(CSc3nnc(-c4ccncc4)n3-c3ccc(C)c(C)c3)n2)cc1", "survival": "inactive: 63%"},
      {"smiles": "CNC(=O)c1ccc(NC(=O)COc2ccc(-c3nn(C)c(=O)c4ccccc34)cc2)cc1", "survival": "active: 62%"},
      {"smiles": "CC(Cc1c[nH]c2ccccc12)NC=O", "note": "(stereo unspecified)", "survival": "inactive: 107%"},
      {"smiles": "Cc1ccc(OCC(=O)N(Cc2sccc2C)C2CCS(=O)(=O)C2)cc1", "note": "(stereo unspecified)", "survival": "inactive: 113%"},
      {"smiles": "COc1cc2nc(SCC(=O)Nc3cccc(C)c3)n3nc(-c4ccccc4)nc3c2cc1OC", "survival": "inactive: 75%"},
      {"smiles": "Cc1ccc([N+](=O)[O-])cc1S(=O)(=O)N1CCn2cccc2C1c1ccc(F)c(F)c1", "note": "(stereo unspecified)", "survival": "inactive: 80%"},
      {"smiles": "COc1ccc(-c2nc(Cn3c(SCc4ccc(F)cc4)nc4cccnc43)c(C)o2)cc1", "survival": "inactive: 88%"},
      {"smiles": "COc1ccc(CNC(=O)C(OC(=O)c2cc3sccc3n2C(C)C)C(C)C)cc1", "note": "(stereo unspecified)", "survival": "inactive: 53%"},
      {"smiles": "CCCn1c(N2CCN(C(=O)/C=C/C(=O)O)CC2)nc2ccccc21", "survival": "inactive: 96%"},
      {"smiles": "CC(=O)c1cccc(NC(=O)c2ccc3nc(C(C)C)oc3c2)c1", "survival": "inactive: 71%"},
      {"smiles": "COc1cc(NC(=O)CC(C)S(=O)(=O)c2cc3c4c(c2)CCN4C(=O)CC3)cc(OC)c1", "note": "(stereo unspecified)", "survival": "inactive: 67%"},
      {"smiles": "Cc1ccccc1C(=O)Nc1cccc(C(=O)OCc2cc(=O)n3nc(C4CC4)sc3n2)c1", "survival": "inactive: 79%"},
      {"smiles": "CC(C)(C)c1cc(N=NC(=O)c2ccco2)cc(C(C)(C)C)c1O", "survival": "inactive: 91%"},
      {"smiles": "COc1ccc(Cn2c(CO)cnc2SCC(=O)NCc2ccco2)cc1", "survival": "active: -5%"},
      {"smiles": "Cc1ccc(C)c(CN2C(=O)c3ccccc3Sc3ccc(C(=O)NCc4ccc5c(c4)OCO5)cc32)c1", "survival": "inactive: 89%"},
      {"smiles": "O=C(Cn1nc(-c2ccc3c(c2)OCCO3)ccc1=O)Nc1cccc2cccnc12", "survival": "inactive: 88%"},
      {"smiles": "COc1cc2ncc3c(-c4ccccc4)nn(-c4ccc(C)cc4)c3c2cc1OC", "survival": "active: 47%"},
      {"smiles": "CC(C)c1ccc(NC(=O)C(Cc2ccccc2)NS(=O)(=O)c2ccc3c(c2)CCC(=O)N3)cc1", "note": "(stereo unspecified)", "survival": "inactive: 64%"},
      {"smiles": "COc1cccc(CNC(=O)CN(C)S(=O)(=O)c2ccc3c(c2)c(=O)n(C)c(=O)n3C)c1", "survival": "inactive: 90%"},
      {"smiles": "Cn1nnnc1SCCNCc1ccccc1Cl", "survival": "inactive: 71%"},
      {"smiles": "Cc1ccc(OCC(=O)Nc2ccc3nc(SCC(=O)N(C)c4ccccc4)sc3c2)cc1", "survival": "inactive: 71%"},
      {"smiles": "CCOC(=O)c1cc(-c2ccc(OC)cc2)nn1Cc1ccccc1", "survival": "inactive: 66%"},
      {"smiles": "Cc1ccc(CSc2nc3c(c(=O)[nH]2)C(c2cccc(F)c2F)CC(=O)N3)cc1", "note": "(stereo unspecified)", "survival": "inactive: 94%"},
      {"smiles": "CC(C)(CO)NC(=O)C1CC(c2c(F)cccc2Cl)=NO1", "note": "(stereo unspecified)", "survival": "inactive: 96%"},
      {"smiles": "COc1ccc(N2CCN(C(=O)c3nn(-c4ccc(C)cc4)c(=O)n(C)c3=O)CC2)cc1", "survival": "inactive: 71%"},
      {"smiles": "Cc1ccc(Cn2c(C)c(CNCc3ccc(OC(C)C)cc3)c(C(=O)O)c2C)cc1", "survival": "inactive: 121%"},
      {"smiles": "CCCCOc1ccc(C(=O)N(Cc2nc(-c3ccc(Cl)cc3)no2)C(C)C)cc1", "survival": "inactive: 59%"},
      {"smiles": "CCOc1ccc(CCNC(=O)c2ccc(CS(=O)Cc3ccc(Cl)cc3)o2)cc1", "note": "(stereo unspecified)", "survival": "inactive: 51%"},
      {"smiles": "Cn1c(=O)oc2cc(S(=O)(=O)N3CCC(C(=O)N4CCN(c5cccc(Cl)c5)CC4)CC3)ccc21", "survival": "inactive: 82%"},
      {"smiles": "CN1CCc2c(sc3c2C(=O)NC(c2ccc(OC(=O)c4ccc(Cl)cc4)cc2)N3)C1", "note": "(stereo unspecified)", "survival": "inactive: 58%"},
      {"smiles": "CC(=O)N1CCc2cc(Br)cc(S(=O)(=O)CCC(=O)NCCc3ccc(Cl)cc3)c21", "survival": "active: 44%"},
      {"smiles": "CCC1Oc2ccc(C)cc2N(CC(=O)Nc2ccc3c(c2)OCCO3)C1=O", "note": "(stereo unspecified)", "survival": "inactive: 104%"},
      {"smiles": "N#C/C(=C\\c1ccc(-c2ccc(C(=O)O)cc2)o1)c1nc2ccccc2[nH]1", "survival": "inactive: 77%"},
      {"smiles": "COc1ccc(Cl)cc1NC(=O)Cn1cc(S(=O)(=O)Cc2cccc(Cl)c2)c2ccccc21", "survival": "inactive: 83%"},
      {"smiles": "CCc1ccccc1Nc1nn2c(=O)c3ccc(C(=O)NCc4ccccc4Cl)cc3nc2s1", "survival": "inactive: 99%"},
      {"smiles": "CCCN1C(C(=O)c2ccccc2)=C(OC(=O)c2ccc(C)cc2)c2ccccc2S1(=O)=O", "survival": "inactive: 52%"},
      {"smiles": "Cc1cccc(NC(=O)CSc2nc(=O)n(Cc3cccnc3)c3c2CCC3)c1", "survival": "inactive: 107%"},
      {"smiles": "COc1ccc(NC(=O)c2c(C)oc3ccc(O)c(CN4CCOCC4)c23)cc1", "survival": "inactive: 81%"},
      {"smiles": "CCc1nnc(NC(=O)CC2CC3CCC2C3)s1", "note": "(stereo unspecified)", "survival": "inactive: 64%"},
      {"smiles": "O=C(COc1ccc(Cl)cc1)NCCc1csc(-c2cccc(F)c2)n1", "survival": "inactive: 99%"},
      {"smiles": "CCOc1ccc(NC(=O)c2oc3ccccc3c2NC(=O)Cc2cccc(C)c2)cc1", "survival": "inactive: 88%"},
      {"smiles": "COc1ccc(OC)c(NS(=O)(=O)c2ccc(Br)s2)c1", "survival": "active: 37%"},
      {"smiles": "COc1ccc(C(=O)Oc2ccc(C(c3c(C)[nH][nH]c3=O)c3c(C)[nH][nH]c3=O)cc2OC)cc1", "survival": "inactive: 71%"},
      {"smiles": "Cc1ccc(NC(=O)CSc2nc(-c3ccco3)cc(C(F)(F)F)n2)cc1C", "survival": "active: 33%"},
      {"smiles": "O=C(COCc1cc(-c2ccco2)on1)Nc1cccc(Cl)c1Cl", "survival": "active: 32%"},
      {"smiles": "Cc1ccc(NC(=O)c2nc(-c3ccncc3)no2)c(Cl)c1", "survival": "inactive: 108%"},
      {"smiles": "COc1ccc(C2N3CC4(C)CN2CC(c2ccccc2)(C3)C4=O)cc1", "note": "(stereo unspecified)", "survival": "inactive: 91%"},
      {"smiles": "CCOc1ccccc1-n1nnc(S(=O)(=O)c2ccc(C)cc2)c1N", "survival": "inactive: 72%"},
      {"smiles": "CC(=O)NC1C(OC2CCCCC2)OC(CO)C(O)C1O", "note": "(stereo unspecified)", "survival": "inactive: 93%"}
    ]}
  ]
}
